The record followed here is the supplement of paper PMC11417369.

± gives the standard deviation of the averaged measurements. Some of the results follow.

For the experiment, the system named is PfAP2-G AP2 domain (GST-tagged). Put plainly: gcPBM binding intensity (ln(normalized median fluorescence intensity)); higher = stronger DNA binding. The procedure, abridged:
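GST-fused DNA-binding domains of P. falciparum, expressed in E. coli, were applied at about 25 μg on average for 1 h to an Agilent 4 × 180k array of primer-extended double-stranded 36-bp intergenic genomic probes and negative controls. Binding intensity is the highest Masliner-normalised natural-log median intensity across replicate spots of either probe orientation, measured with Alexa488 anti-GST antibody and a 488 nm scan.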
“TCTTTTATATTTTTTTGTACACAAGAATAAAGAAAA [XGTACX_site3394]”: the “gcPBM binding intensity (ln)” value is 11.4 ± 0.98.
With “GACAAATGAAAAGATTGTACATGTATTTGAAGATTA [XGTACX_site6775]”, the “gcPBM binding intensity (ln)” value was 11 ± 0.58.
Under “TATATATATATATAGGTGCAATATTGAAAAAATATC [GTGCAC_site9535]” stands 10.2 ± 0.31; under “AAAGTAATATATAATACATGCGTAAATATTTATGTA [TGCATGCA_site254]”, 9.86.
Under “TATATATATATATATTGTACACATACATGTAGTTTT [XGTACX_site4848]” stands 11.5 ± 0.82; under “GAGTTTTAATGTAATAGTACTTTAATTATTATATAT [XGTACX_site4527]”, 10.9 ± 0.61; under “TTTTTTTTTTATTCATGTACGTATTTAAATAATTCT [XGTACX_site2651]”, 11.4 ± 0.76.
Then “ATCTTTTATATATTCACACATAAAATTATACAGATA [CACACA_site5277]”, with 10.1 ± 0.2; and “AATAAATAAATAAATATATATATATATATATATATA [CACACA_negctrl_site708]”, with 10.2 ± 0.91.
In the case of “ATATATATATATAATGCACACATTATAAATTATGTA [CACACA_site5802]”, the “gcPBM binding intensity (ln)” value stood at 9.97 ± 0.62.
Under “TGTATATACATAAAGTGTACGTATATTTATATATAT [XGTACX_site4320]” stands 11.6 ± 0.98.
With “TATTTTTATTTTACATTATTTGTTTATAATTCTTAA [CACACA_negctrl_site1358]”, the “gcPBM binding intensity (ln)” value was 9.845 ± 0.007.
Under “AAAAAAAAAAAAAACACACAAACAAATGAATAAATA [CACACA_site3300]” stands 9.91 ± 0.16; under “ATAAAAAATTAGGACTGTACATAATTTTTGTGATTT [XGTACX_site2857]”, 11.2 ± 0.7.
Then “TTTATTTTAAATTTACGTACATAATTAATCATATTT [XGTACX_site7529]”, with 11.5 ± 0.97; and “ATGAAATTTATATCATGTACATACAAGAGAAAAAAA [XGTACX_site3326]”, with 11.1 ± 0.68.
Under “AAAATTATAAAATGGGCACACATGAATATTGTAGTA [CACACA_site5261]” stands 10.5 ± 0.29.
In the case of “GTATAATAAATGATAGCACACATATGTACTTATATA [CACACA_site8188]”, the “gcPBM binding intensity (ln)” value amounted to 11.5 ± 0.85.
Under “GACTACACACAAGGGTGTACATATATATTATATATA [XGTACX_site2247]” stands 11.3 ± 0.85; under “TTAACTTATTTGTAAAGTACATTAATAAAAAGAAAA [XGTACX_site1588]”, 11.1 ± 0.42; under “AGGTTATAATTGTTTTCACACATTTAAAAATGTTAT [CACACA_site5097]”, 9.98 ± 0.042.
Then “TTATATATTTCTATTGCACACTATATTTTATGAAGA [CACACA_site2910]”, with 10.1 ± 0.15.
Then “TATATATATAAGGATAGTACATATATTTATATGATT [XGTACX_site4954]”, with 10.8 ± 0.52.
“AAAATAATCTTATGCACACCAAAAATTTATATAATC [CACACA_site1235]”: the “gcPBM binding intensity (ln)” value was found to be 10.1 ± 0.12.
As to “TTATAAAAATACAGTTAACACACATGTGTATATATA [CACACA_site9257]”, the “gcPBM binding intensity (ln)” value worked out at 10.4 ± 0.25.
Under “GATCGCATGAAATGAACACACATAAAAAAAATATAC [CACACA_site4087]” stands 10.1 ± 0.17; under “AAAAAAAAAATATACACACACACATACCCATAAATA [CACACA_site5981]”, 10.4 ± 0.23; under “AAAACACAATTTATTACACACATATATTATAGATTA [CACACA_site6780]”, 9.815 ± 0.064.
As for TAATGCAACATTTATGTGCACATAAATATTTTTTAA, the “gcPBM binding intensity (ln)” value stood at 10.6 ± 0.45.
Then “CTTTGTAGTTGGTCCACACACATATCTGGAAGAATA [CACACA_site4834]”, with 11.3 ± 1.1; and “ATATTAAATATATACAGTACACATTACAATACAATA [XGTACX_site3221]”, with 11.2 ± 0.59.
Regarding “TAATATTAAAAAGAGACACACAAAAATATTAAAAAA [CACACA_site3120]”, the “gcPBM binding intensity (ln)” value worked out at 10.1 ± 0.11.
For “TTACACCTTAGGATCTGTACAAATATATGACAAATC [XGTACX_site4333]”, the “gcPBM binding intensity (ln)” value came to 10.7 ± 0.42.
Turning to “AAGGTTTTGGGTTTTAATTAATTTAATATGATTATA [XGTACX_negctrl_site147]”, the “gcPBM binding intensity (ln)” value was determined as 10 ± 0.18.
Then “TAAGCGTTTTTTAAAACACACATAAGAACTAAATGA [CACACA_site1670]”, with 10.2 ± 0.18; and “TTTCTTAAACCGTACAGTACACACCTTTATAATGTT [XGTACX_site434]”, with 11.3 ± 0.74; and “TTTTTTTTTTTTTGTAGTACATACTATTTTATTAAT [XGTACX_site950]”, with 11.5 ± 1.
As for “CGACTTTTAAAATATACACACATATAAATAAATATA [CACACA_site6523]”, the “gcPBM binding intensity (ln)” value was 9.94 ± 0.085.
Under “TTACAATATAATAAATGTACATATAACAAATATATA [XGTACX_site2199]” stands 11.2 ± 0.65.
Then “TAAAAAATTATATTCACACACATACACATATATATA [CACACA_site545]”, with 9.91 ± 0.14; and “AGAATTATATACACAAGTACATAATGACATATATAT [XGTACX_site5617]”, with 11.1 ± 0.89.
Under “TAGATGTATTTTTAAAGTACTTTTTAATATATAATC [XGTACX_site1431]” stands 11.2 ± 0.8.
In the case of “CATCTGGTATCTAATAGTACATATATATAATATCTT [XGTACX_site2774]”, the “gcPBM binding intensity (ln)” value is 11.1 ± 0.52.
Then “AACAAAAGAAAAAAATATATATATTCGTCCTATTTT [CACACA_negctrl_site444]”, with 9.85 ± 0.099.
Then “ATTTTTTTTTTTTATGGTACACACACGCGTATGGTT [XGTACX_site3888]”, with 11.5 ± 1.1.
